Measurements reported in PubChem BioAssay AID1963576 (National Center for Advancing Translational Sciences (NCATS), 2024).
Out of some 46,000 compounds screened, about 60 (0.1%) were called active. Inconclusive results (about 3%) are left out. Calls come from the whole dose curve; as a rule, active = well fitted inhibition curve with a large enough effect; inconclusive = small, poorly fitted or top-dose-only effect; inactive = no such curve, though single readings can be large or run the other way. The list shows a part of the results.

Experiment: Primary qHTS assay for Inhibitors of ovarian cancer metastasis using an organotypic tumor microenvironment (TME) model.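 For activity change, negative = inhibition: plate controls were DMSO wells for no effect and tomatine positive control wells for full effect.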 Note: nearly all actives have a fitted effect of over 65% in size.
Details: SKOV3ip1-GFP adhesion/invasion on 3D omental model, fluorescence; series mostly up to 45.8 µM; activity change, negative = inhibition: at the top concentration
Procedure, shortened: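 Primary human omental fibroblast/mesothelial 3D culture pre-formed 48 h. SKOV3ip1-GFP cells added with compounds (0.36-46 umol/L), incubated 2 h RT/16 h 37 C, fixed; GFP cells quantified at 488/509 nm.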

outcome, inactive:
CCOc1ccc(N(CC)S(=O)(=O)N2CCCC(C(=O)NCc3ccccc3OCC)C2)cc1 (stereo not given)
O=C(CSc1nc2c([nH]c3ccccc32)c(=O)n1-c1ccccc1)Nc1ccccc1C(F)(F)F
Cc1nn(CC(=O)NC(C)c2ccccc2)c(=O)c2cc3occc3n12 (stereo not given)
CCc1ccccc1-n1nnc(-c2nc(-c3ccccc3F)no2)c1C
Cc1[nH]c2ccccc2c1C1(O)C(=O)Nc2ccc(Cl)cc21 (stereo not given)
Cc1cccc(NC(=O)CSc2nc(=O)n(CCN3CCOCC3)c3c2CCC3)c1
Cc1[nH]c2ccccc2c1C1(O)C(=O)N(Cc2ccccc2)c2ccc(Br)cc21 (stereo not given)
COc1cccc(NC(=O)CN2C(=O)COc3ccc(S(=O)(=O)N4CCOCC4)cc32)c1
CCOC(=O)c1cc(-c2ccc(OC)cc2)n(CCC(=O)NC2CCC(C)CC2)c1C (stereo not given)
COCCn1c(C)cc(O)c(C(c2ccc(OC)cc2)N2CCCCC2)c1=O (stereo not given)
CCOC(=O)c1c(Nc2ccc(OCC)cc2)nnc(-c2ccccc2)c1-c1ccccc1

Activity change, negative = inhibition, inactive:
Cc1nn2c(=O)cc(COC(=O)c3ccccc3NC(=O)C3CCCCC3)nc2s1 0.0512%
COc1ccc2c(c1)CC(C(=O)Nc1c(C)cc(C)cc1C)CO2 (stereo not given) -7.56%
NS(=O)(=O)c1ccc(CCNC(=O)Cn2c(=O)c3cccn3c3ccc(F)cc32)cc1 -1.14%
NC(=O)COc1ccc(-c2noc(COc3ccc(Cl)cc3)n2)cc1 14.2%
COc1cccc2c1Oc1ncccc1N(C(=O)CCC(=O)NCc1ccc(OC(C)C)cc1)C2 9.53%
COc1cccc(NC(=O)CSC2=Nc3ccccc3C3=NC(CCC(=O)NC4CCCCC4)C(=O)N23)c1 (stereo not given) 8.71%
COc1ccc(OC)c(NC(=O)CCCOc2cc(=O)n(C)c3ccccc23)c1 -4.51%
Cc1ccc(-n2c3c(c(=O)[nH]c2=O)C(NC(=O)C(C)(C)C)(C(F)(F)F)C(=O)N3)cc1 (stereo not given) 2.27%
O=C(Nc1cccc(F)c1)C1CCN(c2nc3ccccc3nc2C(F)(F)F)CC1 63.9%
Cn1c(=O)n(C)c2cc(NS(=O)(=O)c3ccc(Cl)cc3)c(NCc3ccccc3)cc21 -0.923%
COc1cccc(C(=O)NCC(c2ccc3c(c2)OCO3)N2CCN(C)CC2)c1 (stereo not given) -6.5%
COc1cc(CNCCCSc2nnnn2C)cc(Br)c1OC -5.07%
Cc1nnc(SCC(=O)NCc2cccc(F)c2)c2nn(-c3ccccc3)c(C)c12 -4.08%
O=C(NCCn1cc(SCc2ccc(C(F)(F)F)cc2)c2ccccc21)c1cccs1 9.95%
Cc1ccc2nc(-c3ccc(N4CCOCC4)cc3)c(Nc3ccccc3C)n2c1 -26.1%
O=C(CN1C(=O)COc2ccc(S(=O)(=O)NC3CCCC3)cc21)Nc1ccc(F)c(Cl)c1 14.2%
Cc1ccc(-n2ncc(C(=O)NCCN3CCc4ccccc4C3)c2C2CCN(C(=O)OC(C)(C)C)CC2)c(C)c1 7.31%
CNC(=O)C1CCC(Cn2c(=O)c3sccc3n(CC(=O)Nc3ccc(C)cc3C)c2=O)CC1 (stereo not given) -4.22%
Cc1ccc(NC(=O)Nc2csc3c2CCCC3)c(C)c1 19%
COc1ccccc1CNc1ncnc2onc(-c3ccc(Cl)cc3)c12 8.56%
CN(c1nnc(NC(=O)Nc2ccc(Br)cc2)s1)C1CCCCC1 3.28%
CCOC(=O)c1c(NC(=O)c2cc(=O)c3c(C)cc(C)cc3o2)sc(C)c1C 2.44%
NC(=O)C1CCN(C(=O)c2ccccc2NC(=O)c2nsc3ccccc23)CC1 2.44%
CCCS(=O)(=O)NCCc1sc2nc(-c3ccc(Cl)cc3)nn2c1C -8%
Cc1cc(C(=O)Nc2ccc(Cl)cc2)c2c(C)nn(-c3ccccc3)c2n1 11.9%
Brc1ccc(-c2csc(-c3nc(-c4ccc(Br)s4)cs3)n2)cc1 0.551%
CCOc1ccc(N(CC(=O)NCc2ccc(C)cc2)S(=O)(=O)c2c(C)[nH]c(=O)[nH]c2=O)cc1 -25.3%
COc1ccccc1Nc1nn2c(=O)c3ccc(C(=O)NC4CCCCC4)cc3nc2s1 -14.8%
COc1ccc(CN(C(=O)c2ccc(OCC(C)C)cc2)C2CCS(=O)(=O)C2)cc1 (stereo not given) -9.23%
CC(CCc1ccccc1)NC(=O)Cn1ncc2c3ccccc3n(Cc3cccc(Cl)c3)c2c1=O (stereo not given) 1.43%
CC(NC(=O)c1ccc(Cn2c(SCc3ccccc3)nc3cccnc32)cc1)c1ccccc1 (stereo not given) -24.1%
COc1cccc(C2C=C(c3ccc(C)cc3)Nc3c(C(=O)Nc4ccc(F)cc4)cnn32)c1OC (stereo not given) -17.8%
O=C(Nc1ccccc1C(F)(F)F)N1Cc2ccccc2Oc2ncccc21 7.06%
CCOc1ccc(NC(=O)CSc2oc(-c3ccco3)nc2S(=O)(=O)c2ccc(Cl)cc2)cc1 -0.599%
CCN(CC)CCNC(=O)Cn1cnc2sc(C)c(S(=O)(=O)N3CCN(c4ccccc4OC)CC3)c2c1=O 2.76%
CCN1CCN(C(c2cccc(OC)c2)c2c(O)cc(C)n(Cc3ccco3)c2=O)CC1 (stereo not given) -7.27%
COc1ccc(NC(=O)CSc2nc(-c3ccccc3)c3ccccc3n2)cc1 -3.9%
Cc1cccc(C(=O)NCc2nnc(SCC(=O)Nc3ccccc3F)n2-c2ccccc2)c1 6.39%
CCc1cccc(-n2nnc(-c3nc(-c4ccc5c(c4)OCO5)no3)c2C)c1 -8.25%
COc1ccc(S(=O)(=O)N2CCN(C(=O)c3cc(-c4ccc(Br)cc4)n[nH]3)CC2)cc1OC -9.75%
CC(=O)N1c2ccc(S(=O)(=O)NCC3CCC(C(=O)Nc4cccc(F)c4)CC3)cc2CC1C (stereo not given) -0.445%
CC1CN(C(=O)Nc2ccc(C(=O)NCCc3ccc(Cl)cc3)cc2)c2ccccc2S1 (stereo not given) -11.2%
CCOc1ccc(NCc2cccn2-c2nnc(N3CCC(C(=O)NCCc4ccc(OCC)c(OCC)c4)CC3)s2)cc1 1.12%
CCN(CC)Cc1ccc2cc(COC(=O)Nc3ccc(C(=O)NO)cc3)ccc2c1 -4.01%
Cc1cccc(NC(=O)C(=O)NCC(c2cccnc2)N2CCN(Cc3ccccc3)CC2)c1 (stereo not given) 5.86%
Cn1c(C(=O)NCCc2ccccc2)cc2cc(S(=O)(=O)N3CCCCC3)ccc21 -0.0491%
CCCN1Cc2cccc(C(=O)Nc3ccccc3F)c2C1=O -92.1%
CCCC(=O)Nc1ccc2nc(SCCOc3ccccc3)sc2c1 1.15%
Cc1ccccc1NC(=O)CSCn1nnc2c(=O)[nH]c(Cc3ccc(F)cc3)nc21 -1.37%
